Experimental data: patent publication US7981890B2, “Phthalazinone derivatives” (AstraZeneca AB, priority 2007, dated 2011)

Target: Mammalian PARP, isolated from Hela cell nuclear extract (Homo sapiens, UniProt P09874)
Test: PARP inhibition assay (FlashPlate, 3H-NAD)
Format: biochemical
Procedure: In order to assess the inhibitory action of the compounds, the following assay was used to determine IC50 values.
All compounds were diluted in DMSO and gave final assay concentrations of between 10 and 0.01 μM, with the DMSO being at a final concentration of 1% per well. The total assay volume per well was 4 μl.
After 10 minutes incubation at 30° C. the reactions were initiated by the addition of a 10 μl reaction mixture, containing NAD (5 μM), ^3H-NAD and 30mer double stranded DNA-oligos. Designated positive and negative reaction wells were done in combination with compound wells (unknowns) in order to calculate % enzyme activities. The plates were then shaken for 2 minutes and incubated at 30° C. for 45 minutes.
Following the incubation, the reactions were quenched by the addition of 50 μl 30% acetic acid to each well. The plates were then shaken for 1 hour at room temperature.
The plates were transferred to a TopCount NXT (TRADE MARK) (Packard, UK) for scintillation counting. Values recorded are counts per minute (cpm) following a 30 second counting of each well.
The % enzyme activity for each compound is then calculated using the following equation:
[formula] IC50 values (the concentration at which 50% of the enzyme activity is inhibited) were calculated, which are determined over a range of different concentrations, normally from 10 μM down to 0.001 μM. Such IC50 values are used as comparative values to identify increased compound potencies.

Sequence of UniProt P09874 (P09874 whole entry): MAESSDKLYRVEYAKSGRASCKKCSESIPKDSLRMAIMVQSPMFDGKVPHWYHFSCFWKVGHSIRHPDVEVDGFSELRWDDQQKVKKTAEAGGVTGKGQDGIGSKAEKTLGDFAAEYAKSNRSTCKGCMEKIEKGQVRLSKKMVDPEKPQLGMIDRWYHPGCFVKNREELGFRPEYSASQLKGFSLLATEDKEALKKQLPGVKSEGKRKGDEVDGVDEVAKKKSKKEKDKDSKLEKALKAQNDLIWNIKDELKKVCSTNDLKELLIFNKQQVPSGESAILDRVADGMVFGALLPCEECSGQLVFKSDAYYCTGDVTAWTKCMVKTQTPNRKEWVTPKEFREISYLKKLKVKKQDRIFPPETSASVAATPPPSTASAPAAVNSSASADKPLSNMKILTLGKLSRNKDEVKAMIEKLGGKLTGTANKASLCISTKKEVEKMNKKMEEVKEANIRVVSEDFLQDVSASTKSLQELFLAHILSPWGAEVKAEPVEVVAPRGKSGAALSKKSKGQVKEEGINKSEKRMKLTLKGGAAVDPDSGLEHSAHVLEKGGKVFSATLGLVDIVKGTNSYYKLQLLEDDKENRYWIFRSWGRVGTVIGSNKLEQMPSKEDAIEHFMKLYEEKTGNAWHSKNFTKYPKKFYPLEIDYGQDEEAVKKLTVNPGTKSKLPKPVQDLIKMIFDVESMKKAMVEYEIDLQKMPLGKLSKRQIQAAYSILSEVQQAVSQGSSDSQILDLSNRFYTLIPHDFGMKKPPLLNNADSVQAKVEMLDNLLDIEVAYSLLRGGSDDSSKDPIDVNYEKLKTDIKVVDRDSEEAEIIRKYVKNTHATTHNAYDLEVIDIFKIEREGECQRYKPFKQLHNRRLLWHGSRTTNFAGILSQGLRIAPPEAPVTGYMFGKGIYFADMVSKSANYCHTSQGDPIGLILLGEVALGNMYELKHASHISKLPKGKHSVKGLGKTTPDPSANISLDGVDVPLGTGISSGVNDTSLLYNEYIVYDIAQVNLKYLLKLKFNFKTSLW

C[C@@H]1NC(=O)N(c2cc(Cc3n[nH]c(=O)c4c3CCCC4)ccc2F)C1=O (single isomer, unassigned) [Compound 13a]
IC50: 3 nM

C[C@H]1NC(=O)N(c2cc(Cc3n[nH]c(=O)c4c3CCCC4)ccc2F)C1=O (single isomer, unassigned) [Compound 13b]
IC50: 5 nM

CC1NC(=O)N(c2cccc(Cc3n[nH]c(=O)c4c3CCCC4)c2)C1=O (centres unmarked) [Compound 6, 5-Methyl-3-[3-(4-oxo-3,4,5,6,7,8-hexahydro-phthalazin-1-ylmethyl)-phenyl]-imidazolidine-2,4-dione]
IC50: 5 nM

CC1NC(=O)N(c2cc(Cc3n[nH]c(=O)c4c3CCCC4)ccc2F)C1=O (centres unmarked) [Compound 13, 3-[2-Fluoro-5-(4-oxo-3,4,5,6,7,8-hexahydro-phthalazin-1-ylmethyl)-phenyl]-5-methylimidazolidine-2,4-dione]
IC50: 4 nM

CC1(C)NC(=O)N(c2cccc(Cc3n[nH]c(=O)c4c3CCCC4)c2)C1=O [Compound 15, 5,5-dimethyl-3-[3-[(4-oxo-5,6,7,8-tetrahydro-3H-phthalazin-1-yl)methyl]phenyl]imidazolidine-2,4-dione]
IC50: 28 nM
